From a compilation of properties of binary mixtures (doi:10.1021/ie401130d)
Some of these densities may be calculated back from excess volumes.

Experiment: xn = mol fraction of the nth substance listed
Details: 101 kPa

CC(=O)[O-].CC[n+]1ccn(C)c1 + O
mass density [kg/m3]
Details | 298.15 K | 303.15 K | 308.15 K | 313.15 K | 318.15 K | 323.15 K | 328.15 K | 333.15 K | 338.15 K
x2 = 0 | 1101.9 | 1098.8 | – | 1092.7 | 1089.7 | – | – | 1080.6 | 1077.7
x2 = 0.0258 | – | – | 1096.1 | 1093 | 1090 | 1087 | – | 1081 | 1078
x2 = 0.0374 | 1102.3 | 1099.3 | 1096.2 | 1093.2 | 1090.1 | 1087.1 | 1084.1 | 1081.1 | –
x2 = 0.0488 | – | 1099.4 | 1096.3 | – | 1090.3 | 1087.3 | 1084.3 | 1081.3 | 1078.3
x2 = 0.0599 | 1102.6 | 1099.6 | – | – | 1090.4 | 1087.4 | – | 1081.4 | –
x2 = 0.0725 | – | 1099.7 | 1096.6 | 1093.6 | 1090.6 | 1087.6 | 1084.6 | – | 1078.6
